Assay results as given in article PMC6919601, “Identification of Plasmodium dipeptidyl aminopeptidase allosteric inhibitors by high throughput screening” (PLoS ONE, 2019).
“And” between values parts separate entries of the source, which are not always exact repeats. Equal entries are not always repeated. The campaign covered roughly 110,000 compounds. About 230 (0.21%) showed an effect of 50% or more. The list shows a part of the results.

Biological target: DPAP1 (Plasmodium falciparum, UniProt Q8IIJ9)
Sequence (Q8IIJ9 whole entry, looked up): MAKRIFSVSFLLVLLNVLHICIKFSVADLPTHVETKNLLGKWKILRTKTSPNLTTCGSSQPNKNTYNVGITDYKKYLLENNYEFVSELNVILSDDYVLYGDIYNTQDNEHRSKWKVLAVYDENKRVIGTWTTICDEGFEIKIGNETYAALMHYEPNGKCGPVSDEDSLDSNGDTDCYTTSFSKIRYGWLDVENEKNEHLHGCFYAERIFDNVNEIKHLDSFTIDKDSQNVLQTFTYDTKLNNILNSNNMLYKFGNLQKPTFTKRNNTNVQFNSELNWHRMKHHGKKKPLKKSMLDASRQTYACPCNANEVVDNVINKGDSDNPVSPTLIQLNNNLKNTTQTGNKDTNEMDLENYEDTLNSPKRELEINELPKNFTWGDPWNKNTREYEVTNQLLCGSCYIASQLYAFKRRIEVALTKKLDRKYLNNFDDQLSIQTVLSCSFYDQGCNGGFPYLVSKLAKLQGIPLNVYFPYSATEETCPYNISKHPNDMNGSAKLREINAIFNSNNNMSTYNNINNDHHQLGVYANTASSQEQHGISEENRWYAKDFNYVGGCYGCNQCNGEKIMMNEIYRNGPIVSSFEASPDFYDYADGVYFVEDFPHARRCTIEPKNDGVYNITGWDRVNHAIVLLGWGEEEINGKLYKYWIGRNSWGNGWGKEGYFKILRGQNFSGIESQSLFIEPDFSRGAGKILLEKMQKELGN
Experiment: primary screen, percent inhibition; read by cleavage of a fluorogenic dipeptide substrate; higher = more effect of the substance
Design: species or system P. falciparum D10 trophozoite lysates; single well
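Further: 30 min substrate incubation versus DMSO and 10 µM JCP410 controls.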

Row | SMILES | % Inhibition @ 10 uM
1 | CC(NC(=O)c1ccc2nc(N3CCOCC3)sc2c1)C12CC3CC(CC(C3)C1)C2 (stereo not shown) | 8.62%
2 | COc1cc(CO)ccc1OCc1nnnn1-c1ccc(C)cc1 | -8.72%
3 | FC(F)(F)COc1nc(N2CCCCC2)nc(N(c2ccccc2)c2ccccc2)n1 | -3.38%
4 | O=[N+]([O-])c1cccc(/C=C/c2ccc3ccccc3n2)c1 | -1.5%
5 | COc1ccc(CN2CCN(C(=O)CC(C)C)CC2)cc1 | 0.214% and -1.44%
6 | Cc1cc(C)c2c(NC(=O)c3ccccc3)c(C(O)c3ccccc3)sc2n1 (stereo not shown) | -7.8%
7 | COc1ccc2c(CNCc3ccc(C)o3)c(C(=O)O)n(Cc3ccc(F)cc3Cl)c2c1 | 7.87%
8 | Cc1ccc(S(=O)(=O)N(CC(=O)N2CCOCC2)c2ccc(C)c(Cl)c2)cc1 | -6.94%
9 | CC1CCc2c(sc3ncnc(N4CCN(C)CC4)c23)C1 (stereo not shown) | 1.83%
10 | O=[N+]([O-])c1ccc(CS(=O)(=O)Nc2c(Cl)cccc2Cl)cc1 | 3.98%
11 | CCN1CCCC1CNC(=O)c1cc2c(-c3cccc(OC)c3)nn(C)c2s1 (stereo not shown) | 6.08%
12 | O=C(CCC1CCCCC1)Nc1ccc(S(=O)(=O)Nc2cnc3ccccc3n2)cc1 | -4.16%
13 | CC(C)NC(=S)N1CCN(Cc2ccc3c(c2)OCO3)CC1 | 4.32%
14 | Cc1ccsc1/C=C1N=C(/C=C/c2ccc(Cl)cc2)OC\1=O | 2.44%
15 | COC(=O)C1(c2ccc(OC)c(OC)c2)CCCC1 | -1.56%
16 | Cc1ccc(CNc2ncc(-c3ccccc3)n2C)cc1 | -2.91%
17 | SC1=NC2=C(C(c3ccc(Cl)cc3Cl)N1)N1CCC2CC1 (stereo not shown) | -4.43%
18 | Sc1nnc(-c2ccc3ccccc3n2)n1Cc1ccccc1 | -5.03%
19 | Cc1cccc(CN2CCCN(C)CC2)c1 | 4.38%
20 | CCCCC(C(=O)O)N1C(=O)c2cc(Cl)c(Cl)cc2C1=O (stereo not shown) | 3.05%
21 | CCN(CC)CCCNC(=O)c1ccc2nc(N3CCC(C)CC3)sc2c1 | 0.828%
22 | Cc1cc(C)n(-c2nnc(C)n2N)n1 | -3.63%
23 | Cc1ccc(C(=O)Nc2noc3ccccc23)cc1 | 2.19%
24 | CC(C)C[C@H](NC(=O)c1ccc(-c2ccccc2)s1)C(=O)NCC#N | -0.0207%
25 | COc1ccc(NC(=O)CSc2nc3c(cc2C#N)CCCCC3)cc1OC | -8.48%
26 | O=C(CCc1nnc2n(Cc3ccccc3Cl)c(=O)c3ccccc3n12)NCCN1CCOCC1 | 0.981%

Row | SMILES | % Inhibition @ 10 uM
27 | CC(=O)NC(=O)/C(C#N)=C/Nc1cccc(C(C)=O)c1 | -1.06%
28 | Cc1ccccc1C(=O)N1CCN(c2ccc(NC(=O)c3cccs3)cc2)CC1 | -4.01%
29 | CCCNC(=O)c1c(C)[nH]c(C(C)=O)c1C | -0.361%
30 | CCN(Cc1ccccc1)C(=O)c1oc(=O)c2ccccc2c1-c1ccc(C)cc1 | -5.22%
31 | COc1cc2c(cc1OC)C(c1ccc3c(c1)OCO3)N(C)CC2 (stereo not shown) | 6.96%
32 | CCOc1ccc(OCc2ccc(C(=O)N3CCC(C)CC3)o2)cc1 | 0.413%
33 | COc1cc(CCC(=O)NCc2ccc(F)cc2)on1 | -0.946%
34 | O=C(Nc1ccc2c(c1)OCO2)c1ccc(Br)o1 | -0.294%
35 | CCN(CCN(C)C)Cc1ccc(-c2ccccc2)cc1 | -4.04%
36 | CC(C)OCCCn1c(=O)c2ccccc2n2c(-c3cc(Br)cs3)nnc12 | 3.3%
37 | CC1=C(C(=O)Nc2ccccn2)C(c2ccncc2)C2=C(O)CC(C)(C)CC2=N1 (stereo not shown) | -4.49%
38 | Clc1ccccc1N1CCN(Cc2cccc3ccccc23)CC1 | 1.55%
39 | Cc1ccc2c(c1)-c1ncc(-c3noc4ccccc34)cc1CO2 | 1.25%
40 | Cc1cc(OCc2cc(=O)n3c(-c4ccccc4)csc3n2)ccc1Cl | -0.495%
41 | Cn1c(=O)c2c(nc(CN3CCCCC3)n2CC(N)=O)n(C)c1=O | 0.317%
42 | Oc1ncnc2c1nnn2Cc1ccccc1 | -1.24%
43 | COc1ccc(-c2cc(C(=O)N3CCCCC3)no2)cc1OC | -1.84%
44 | CCN(CC)CCN(CC)Cc1cc(OC)ccc1OC | 7.79%
45 | COc1ccc2nc(N=C(NC(C)=O)NC(C)=O)nc(C)c2c1 | 0.587%
46 | CCCCCNC(=O)C1CC=CCC1C(=O)O (stereo not shown) | -6.69%
47 | CC(C)N(Cc1ccccc1)C(=O)Cn1ncc2c(=O)oc3ccccc3c21 | -3.94%
48 | CC(C)CC(C(=O)Nc1ccc(C2CCCC2)cc1)N1CCN(C)CC1 (stereo not shown) | 0.873%
49 | COc1ccc(C2Nc3ccccc3C(=O)N2Cc2ccco2)cc1COc1ccc(NC(C)=O)cc1 (stereo not shown) | 16.4%
50 | COc1cccc(CN2CCN(Cc3cccc(OC)c3OC)CC2)c1 | -3.83%
51 | COc1ccc(Br)cc1C(=O)Nc1ccc(NC(=O)c2ccco2)cc1 | -0.48%
52 | COc1ccc(OCC(=O)NCCc2nc3ccccc3[nH]2)cc1 | -0.0267%

Row | SMILES | % Inhibition @ 10 uM
53 | CC(=O)c1c(C)nc2n(C)c3ccccc3n12 | -7.06%
54 | O=C(c1cc(Sc2cccc(Cl)c2)nc2ccccc12)N1CCC2(CC1)OCCO2 | -2.26%
55 | COc1ccccc1-c1cc2ccccc2c(N)n1 | -1.95%
56 | Cc1ccc(/C=C(\C#N)C(N)=S)c(C)c1 | 0.968%
57 | COc1ccccc1CNC(=O)c1ccc(C(C)(C)C)cc1 | 0.247%
58 | CCOc1ccccc1C(=O)Nc1ccc(C)c(Cl)c1 | -1.07%
59 | CC(=O)c1[nH]nnc1Nc1nc(C)cc(C)n1 | -1.05%
60 | CCOCCCNC(=O)c1c(NC(=O)Cc2coc3cc(C)cc(C)c23)sc2c1CCC2 | 1%
61 | CC(=O)c1cc(F)c(N2CCN(C)CC2)cc1C | 3.01%
62 | CCN1CCN(c2ccc(NC(=O)c3cccnc3Cl)cc2)CC1 | -4.12%
63 | O=C1CC(N2CCOCC2)C(=O)N1c1ccc(OC(F)(F)Cl)cc1 (stereo not shown) | 5.24%
64 | O=C(Nc1ccccc1C(=O)Nc1ccccc1)c1ccccc1Br | -4.72%
65 | Cc1ccc2c(c1)-c1c(cnn1CC(=O)NCCN1CCOCC1)CO2 | 0.851%
66 | CCn1c(C)nc2cc(S(N)(=O)=O)ccc21 | 3.16%
67 | O=C(C1CCCN(S(=O)(=O)c2ccc3nc(O)ccc3c2)C1)N1CCC(Cc2ccccc2)CC1 (stereo not shown) | -2.55%
68 | O=C1CC(N2CCN(CCOCCO)CC2)C(=O)N1c1ccccc1 (stereo not shown) | 2.01%
69 | Cc1cc2c(cc1Br)NC(=O)C21C(C#N)=C(N)OC2=C1C(=O)CCC2 (stereo not shown) | 0.98%
70 | Cc1cc(C)c2c(N)c(C(=O)Nc3ccccn3)sc2n1 | -3.04%
71 | CN1CC=C(CNc2cccc3ccccc23)CC1 | 0.878%
72 | CSc1c(CNC(=O)c2ccccc2)c2ccccc2n1C | -2.32%
73 | O=C(Nc1ccccc1[N+](=O)[O-])c1cccc(S(=O)(=O)Nc2ccc(Br)cc2)c1 | -1.77%
74 | CCOCCCNCc1c(C(=O)O)n(C)c2ccccc12 | -1.44%
75 | COc1cc(C2c3c(oc4cc(C)c(C)cc4c3=O)C(=O)N2c2ccc(C)cn2)ccc1O (stereo not shown) | -5%
76 | CCOC(=O)c1c(C)n(C)c2ccc(OCC(O)CNC3CCCCC3C)cc12 (stereo not shown) | -1.33%
77 | Cc1ccc(-n2ncc(C(=O)NCCN3CCOCC3)c2C2CCN(C(=O)OC(C)(C)C)CC2)cc1 | 1.41%
78 | COc1ccccc1/C=C1\CCCC2=C1Nc1nnnn1C2c1ccccc1OC (stereo not shown) | 0.0842%

Row | SMILES | % Inhibition @ 10 uM
79 | COc1ccc(NC2=C(Cl)C(=O)N(c3cc(Cl)ccc3OC)C2=O)cc1 | 2.15%
80 | CCc1ccc(OCC(=O)O/N=C(\N)c2ccc(OC)cc2)cc1 | 3.25%
81 | O=S(=O)(Nc1ccc(S(=O)(=O)N2CCCC2)cc1)c1cc(Cl)ccc1Cl | 0.658% and 4.44%
82 | Cc1nn(C(CC(=O)O)C(=O)O)c(C)c1Br (stereo not shown) | 2.42%
83 | CCOc1ccccc1CN1CCc2c([nH]c3ccccc23)C1 | -6.82%
84 | CCOC(=O)c1nnc(N)s1 | -4.46%
85 | O=C1OC(/C=C/c2ccc(Cl)cc2)=NC/1=C/C=C/c1ccccc1 | -5.29%
86 | Cc1cccc(C)c1NC(=O)c1cccc(OC(F)F)c1 | 0.163%
87 | CC1CCCN(S(=O)(=O)c2ccc(S(=O)(=O)N(Cc3ccccc3F)C3CCCC3)cc2)C1 (stereo not shown) | 6.7%
88 | Nc1cccc(/C=C/c2nc3cc(N)ccc3[nH]2)c1 | 3.35%
89 | Cc1c(Cl)cccc1NC(=O)COc1ccc(S(=O)(=O)NCc2ccccc2)cc1 | 4.44%
90 | Cc1ccc(S(=O)(=O)c2cc3c(=O)n4ccccc4nc3n(CCO)c2=N)cc1 | -4.59%
91 | CC(CN1C(C)CCCC1C)OC(=O)c1ccccc1Br (stereo not shown) | -3.86%
92 | COc1ccc(Cl)cc1NC(=O)c1ccc(NC(C)=O)cc1 | -1.02%
93 | CCCCn1c(=O)c2oc3ccccc3c2n(CC(N)=O)c1=O | 2.49%
94 | CC(C(=O)N1CCc2ccccc2C1)n1sc2ccccc2c1=O (stereo not shown) | -5.15%
95 | COc1ccccc1C(=O)Nc1ccccc1Br | 4.92%
96 | CCCCNC(=O)C1CCC(=O)N1Cc1ccc(F)cc1 (stereo not shown) | 1.62%
97 | Cc1occc1C(=O)Nc1ccc(C(C)C)cc1 | 3.81%
98 | O=C(Cn1ncc2c1-c1ccccc1OC2)N1CCC(Cc2ccccc2)CC1 | -0.154%
99 | CCc1c(Cc2[nH]c(C)c(C(C)=O)c2C)[nH]c(C(=O)O)c1C | 1.26%
100 | O=c1oc2cc(O)ccc2c2ccccc12 | 10.2%
101 | O=S(=O)(c1ccc(Cl)cc1)n1c(Cc2ccccc2)nc2ccccc21 | -2.44%
102 | O=C(Nc1ccc(F)c(Cl)c1)NC1CCCCC1 | 2.94%
103 | CCC[C@H](N[C@H](C(=O)NC(C)C)c1ccc(-c2ccc(OC)nc2)cc1)C(=O)NC1(C#N)CC1 | -4.72%
